In PubChem BioAssay AID1347073 (National Center for Advancing Translational Sciences (NCATS), 2019):
Out of some 45,000 compounds screened, about 200 (0.44%) were called active. About 7% were inconclusive and are not listed. Calls follow the shape of the dose curve; as a rule, active = well fitted activation curve with a large enough effect; inconclusive = small, poorly fitted or top-dose-only effect; inactive = no such curve, though single readings can be large or run the other way. The list shows a part of the results.

Assay: qHTS of TDP-43 Inhibitors: NCGC Sytravon Library Screen; also: 0% is about no effect; nearly all actives have a fitted effect of over 55% in size
Details: yeast TDP-43 toxicity rescue, BacTiter-Glo growth, 24 h; series mostly up to 46.1 µM; growth rescue (activation): at the top concentration
Outline: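 TDP-43-expressing yeast, pregrown in raffinose, seeded at OD600 0.02 in galactose medium with compound for 24 hr at 30 deg C. Growth read by BacTiter-Glo luminescence, so rescue of toxicity appears as activation.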

Row | Structure (SMILES) | growth rescue (activation)
1 | CCCCNC(=S)N/N=C/c1ccc(OCC(=O)Nc2c(C)cc(C)cc2C)c(OC)c1 | inactive: -3.91%
2 | CCOc1ccccc1NC(=O)C(C)SCc1ccccc1 (configuration not stated) | inactive: 20.7%
3 | COC(=O)c1cc(-c2cccc(OC)c2)on1 | inactive: 33.1%
4 | COc1ccc(CNC(=O)CN(Cc2ccco2)C(=O)CNS(=O)(=O)c2ccc(C)cc2)cc1 | inactive: -3.08%
5 | NS(=O)(=O)c1ccc(NC(=O)CN2C(=O)c3ccccc3C2=O)cc1 | inactive: 3.63%
6 | COCCNC(=O)C1(C)CCCN(CC(=O)c2ccc(OC)cc2)C1 (configuration not stated) | inactive: 12.2%
7 | O=S(=O)(c1ccccc1)c1nc(-c2ccco2)oc1Nc1ccccc1 | inactive: 15.7%
8 | Cc1nc(SCCCSc2n[nH]c(C)n2)n[nH]1 | inactive: -11.4%
9 | CCOc1ccc(CNc2cc(C)nc3nc(-c4cccc(C)c4)nn23)cc1OC | inactive: 12.3%
10 | CCCN1CCN(C(=O)Cn2cnc3sc(C)c(S(=O)(=O)N4CCC(C)CC4)c3c2=O)CC1 | inactive: 4.96%
11 | CCOc1cc(C)nc(N2CCC(C(=O)NCC3CCCO3)CC2)n1 (configuration not stated) | inactive: -21.8%
12 | CCc1ccc(S(=O)(=O)Nc2c(C)nc3nc[nH]n3c2=O)cc1 | inactive: 4.27%
13 | O=C(COC(=O)c1cc(=O)c2ccccc2o1)Nc1ccccc1F | inactive: -3.88%
14 | CCOc1ccc(N2C(=O)/C(=C\c3ccc(O)c(OC)c3)S(=O)(=O)C2c2cccc([N+](=O)[O-])c2)cc1 (configuration not stated) | inactive: 0.208%
15 | NC(=O)c1ccccc1NC(=O)Cc1cccs1 | inactive: 5.72%
16 | CCCNC(=O)C1(C)CCCN(C(=O)c2oc3ccccc3c2C)C1 (configuration not stated) | inactive: -9.34%
17 | CCCN(CCC)CC(O)Cn1c2ccccc2c2ccccc21 (configuration not stated) | inactive: 4.45%
18 | COCCCN(C(=S)NC(=O)c1ccc(C(C)(C)C)cc1)c1c(N)n(Cc2ccccc2)c(=O)[nH]c1=O | inactive: 17.1%
19 | Cc1cccc(OCCC(=O)Nc2ccccc2C(N)=O)c1 | inactive: 2.51%
20 | CCOc1ccc(N2C(=O)CC(NCCc3ccc(S(N)(=O)=O)cc3)C2=O)cc1 (configuration not stated) | inactive: 11.4%
21 | Cc1cc(C(=O)CSc2nnc(-c3ccc(F)cc3)o2)c(C)n1CC1CCCO1 (configuration not stated) | inactive: 15.1%
22 | O=C(CC1CCCC1)N1CCCC(Nc2cccc(F)c2)C1 (configuration not stated) | inactive: 13%
23 | Cc1cccc(CSc2nnc(CCCCCNC(=O)OC(C)(C)C)o2)c1 | inactive: 21.8%
24 | Cn1c(CN2CCCC2)nc2cc(NC(=O)COc3ccc([N+](=O)[O-])cc3)ccc21 | inactive: 16.9%
25 | COc1ccccc1NC(=O)N1CCN(C)CC1 | inactive: 1.75%
26 | O=C(COc1ccc(Br)cc1)N/N=C1/SCC(=O)N1Cc1ccccc1 | inactive: 18.8%

Row | Structure (SMILES) | growth rescue (activation)
27 | CN(C)C(CNC(=O)CNC(=O)Cc1cccc2ccccc12)c1ccccc1 (configuration not stated) | inactive: 5.13%
28 | CCCNC1=C(C)C(=O)CC1 | inactive: 12.8%
29 | CN(C(=O)CSc1nc(-c2cccs2)nc2ccccc12)C1CCS(=O)(=O)C1 (configuration not stated) | inactive: 15.9%
30 | CCOC(=O)c1c(C)[nH]c(C)c1C(=O)COC(=O)[C@@H](NC(=O)c1ccco1)C(C)C | inactive: 8.95%
31 | O=C(CN(C(=O)CCC(=O)Nc1nccs1)c1ccc(F)c(Cl)c1)NCC1CCCO1 (configuration not stated) | inactive: -3.56%
32 | O=C(NCc1cnn(-c2ccc(F)cc2)c1)C1CCC(=O)N(C2CC2)C1 (configuration not stated) | inactive: 10.3%
33 | C=CCOc1ccc(CN(C)C(=O)CN2C(=O)c3ccccc3C2=O)cc1 | inactive: 20.8%
34 | COc1ccccc1C(CNC(=O)c1cc(C)nc2ccccc12)N(C)C (configuration not stated) | inactive: 6.79%
35 | CN(C(=O)C1CCN(S(=O)(=O)c2cccs2)CC1)c1ccccc1 | inactive: -3.77%
36 | O=C(Nc1cccc(Cl)c1)C1C2C=CC3(O2)C1C(=O)N(CCCN1CCCCC1)C3C(=O)NC1CCCCC1 (configuration not stated) | inactive: 9.39%
37 | O=C(CCC(=O)c1cccs1)NCc1ccccc1Cl | inactive: 15.3%
38 | Cc1ccc(NC(=O)CSc2n[nH]c(-c3ccccn3)n2)cc1 | inactive: 3.54%
39 | Cc1ccccc1-c1nnc(SCC(=O)N(CC(C)C)c2c(N)n(CC(C)C)c(=O)[nH]c2=O)n1C | inactive: 28.9%
40 | Nc1cccc(Oc2ccc3c(c2)C(=O)N(CCO)C3=O)c1 | inactive: -3.68%
41 | O=C(NCC(=O)N1CCOCC1)c1ccc(Cl)c(Cl)c1 | inactive: -3.26%
42 | Cc1c(C(=O)NCc2cccc(Br)c2)oc2ccc3c(c12)C(=O)CC(C)(C)O3 | inactive: 33.2%
43 | CCc1cccc(C)c1NC(=O)c1ccccc1 | inactive: -13.1%
44 | COC(=O)c1ccc(CN2CCN(C3CCCCC3)C(CCO)C2)cc1 (configuration not stated) | inactive: 14.6%
45 | CCc1nnc(NC(=O)CSc2nc3cc(OC)c(OC)cc3cc2C)s1 | inactive: 1.85%
46 | Cc1c(C(=O)NCc2ccco2)cccc1[N+](=O)[O-] | inactive: 8.95%
47 | Oc1ccc(/C=N/Nc2ccnc3cc(Cl)ccc23)c(O)c1O | inactive: 13.9%
48 | COc1ccc(OCC(=O)NC2CCCc3ccccc32)cc1 (configuration not stated) | inactive: -8.8%
49 | CCN1CCN(Cc2ccc(NC(=O)Nc3cccs3)cc2)CC1 | inactive: -3.27%
50 | COc1ccc(/C=C/C(=O)NC(=S)N2CCSCC2)cc1 | inactive: 0.403%
51 | CC1Cc2ccccc2N1C(=O)Cn1cc([N+](=O)[O-])ccc1=O (configuration not stated) | inactive: 21.2%
52 | O=C(COC(=O)CCc1ccc(S(=O)(=O)N2CCOCC2)cc1)NCc1ccccc1 | inactive: 16.8%
